{"source": "paper PMC6919601", "about": "“Identification of Plasmodium dipeptidyl aminopeptidase allosteric inhibitors by high throughput screening” (PLoS ONE, 2019)", "note": "In all, about 110,000 compounds went through this assay and about 230 (0.21%) showed an effect of 50% or more. Some of the results follow.", "data": [{"molecular_target": "DPAP1 (Plasmodium falciparum, UniProt Q8IIJ9)", "sequence (Q8IIJ9 whole entry, looked up)": "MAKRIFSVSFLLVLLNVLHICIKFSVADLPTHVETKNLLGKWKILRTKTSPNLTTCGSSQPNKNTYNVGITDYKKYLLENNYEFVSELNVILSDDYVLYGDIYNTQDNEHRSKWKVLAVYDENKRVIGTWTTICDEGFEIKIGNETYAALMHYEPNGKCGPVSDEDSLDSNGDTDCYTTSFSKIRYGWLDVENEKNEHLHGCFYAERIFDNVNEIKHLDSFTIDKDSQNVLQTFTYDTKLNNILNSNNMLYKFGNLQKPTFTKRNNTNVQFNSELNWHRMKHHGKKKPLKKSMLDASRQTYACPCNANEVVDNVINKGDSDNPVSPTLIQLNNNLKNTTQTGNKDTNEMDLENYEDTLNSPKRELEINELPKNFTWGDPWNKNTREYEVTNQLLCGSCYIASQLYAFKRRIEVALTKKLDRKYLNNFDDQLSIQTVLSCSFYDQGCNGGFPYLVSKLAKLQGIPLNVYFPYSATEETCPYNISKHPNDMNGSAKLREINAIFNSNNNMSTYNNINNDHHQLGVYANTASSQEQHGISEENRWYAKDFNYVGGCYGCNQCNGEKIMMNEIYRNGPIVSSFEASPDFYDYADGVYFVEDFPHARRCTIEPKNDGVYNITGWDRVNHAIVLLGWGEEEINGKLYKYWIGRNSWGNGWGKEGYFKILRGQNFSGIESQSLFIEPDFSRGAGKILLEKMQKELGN", "experiment": "primary screen, percent inhibition; read by cleavage of a fluorogenic dipeptide substrate; higher = more effect of the substance", "design": "species or system P. falciparum D10 trophozoite lysates; single well", "units": {"% Inhibition @ 10 uM": "%"}, "values": [{"compound": "CC(NC(=O)C1CCN(S(=O)(=O)c2ccccc2)CC1)c1ccccc1", "note": "(centres unmarked);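 further: 30 min substrate incubation versus DMSO and 10 µM JCP410 controls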", "% Inhibition @ 10 uM": -7.56}, {"compound": "CCC1(Cc2ccccc2)NC(=O)c2ccccc2O1", "note": "(centres unmarked)", "% Inhibition @ 10 uM": -5.94}, {"compound": "CCOC(=O)N1CCN(CCC(=O)Nc2cccc(Br)c2)CC1", "% Inhibition @ 10 uM": 2.92}, {"compound": "OCCNCc1ccc(OCc2ccc(Cl)cc2Cl)cc1", "% Inhibition @ 10 uM": -6.02}, {"compound": "O=C(CN1C(=O)c2ccccc2S1(=O)=O)Nc1ccc(F)cc1", "% Inhibition @ 10 uM": -6.36}, {"compound": "CC(C)Oc1ccc(CNC(=O)c2ccc3nc(N4CCCCC4)sc3c2)cc1", "% Inhibition @ 10 uM": 1.72}, {"compound": "CCOc1ccccc1CN1CCC(N2CCCCC2)CC1", "% Inhibition @ 10 uM": 4.55}, {"compound": "O=C(Nc1ccccc1C(=O)Nc1ccccc1)c1cccs1", "% Inhibition @ 10 uM": 4.05}, {"compound": "Cc1cccc(Oc2cc(-n3ncc(C#N)c3N)ncn2)c1", "% Inhibition @ 10 uM": -9.39}, {"compound": "O=C(CSCC(=O)Nc1ccccc1F)Nc1ccc(Cl)cc1", "% Inhibition @ 10 uM": -5.81}, {"compound": "Cc1ccc(-c2nc3sccn3c2C=O)cc1", "% Inhibition @ 10 uM": -4.35}, {"compound": "CCOC(=O)C1=C(CS(=O)(=O)c2ccc(C)cc2)NC(=O)NC1c1ccc(OCC)c(OC)c1", "note": "(centres unmarked)", "% Inhibition @ 10 uM": -4.17}, {"compound": "O=C(c1ccc(CS(=O)Cc2cccc(Cl)c2)o1)N1CCN(Cc2ccccc2)CC1", "note": "(centres unmarked)", "% Inhibition @ 10 uM": 0.401}, {"compound": "Cc1cccc(-[n+]2c(=O)c(Cc3ccccc3)c(O)n3nc(C)ccc32)c1", "% Inhibition @ 10 uM": -0.496}, {"compound": "COc1ccc(-c2nc3ccc4ccccc4c3c3c2CCC3)cc1", "% Inhibition @ 10 uM": -1.97}, {"compound": "CCOC(=O)C1CCCN(Cc2cccc(Cl)c2Cl)C1", "note": "(centres unmarked)", "% Inhibition @ 10 uM": 1.48}, {"compound": "CCc1cc(CC)c(CO)c(CC)c1CO", "% Inhibition @ 10 uM": 3.42}, {"compound": "N#Cc1ccc(CN2CCc3ccccc3C2)cc1", "% Inhibition @ 10 uM": -0.0709}, {"compound": "O=C(O)CCC(=O)N(Cc1ccccc1)Cc1cn(-c2ccccc2)nc1-c1ccc2c(c1)OCCO2", "% Inhibition @ 10 uM": -5.41}, {"compound": "CCc1c(C)sc(NC(=O)C2CCCO2)c1C#N", "note": "(centres unmarked)", "% Inhibition @ 10 uM": 0.674}, {"compound": "O=C(O)CNc1ncnc2[nH]cnc12", "% Inhibition @ 10 uM": -1.06}, {"compound": "CCN1C(=O)C(CC(=O)Nc2ccccc2Br)S/C1=N\\c1cccc(OC)c1", "note": "(centres unmarked)", "% Inhibition @ 10 uM": 4.67}, {"compound": "CCOc1ccc(-n2c(C)cc(/C=C3/C(=N)N4C(=NC3=O)SN=C4S(=O)(=O)CC)c2C)cc1", "% Inhibition @ 10 uM": -1.58}, {"compound": "CCNc1nc(OC)nc(N2CCC(Cc3ccccc3)CC2)n1", "% Inhibition @ 10 uM": -10.8}, {"compound": "CC(C)CC(NC(=O)c1ccc(NC(=O)Nc2ccccn2)cc1)C(=O)NCC#N", "note": "(centres unmarked)", "% Inhibition @ 10 uM": -5.64}, {"compound": "c1ccn(-c2ncnc3sc4c(c23)CCCC4)c1", "% Inhibition @ 10 uM": 1.08}, {"compound": "COC(=O)C1=C(C)NC(=O)NC1c1cccc(Cl)c1", "note": "(centres unmarked)", "% Inhibition @ 10 uM": -3.14}, {"compound": "CCOC(=O)c1c(NC(=O)CSc2nc(CC)c(C)cc2C#N)sc2c1CCC2", "% Inhibition @ 10 uM": 1.97}, {"compound": "Cc1oc(-c2ccc(Cl)cc2)nc1CS(=O)CC(=O)NCCCN1CCOCC1", "note": "(centres unmarked)", "% Inhibition @ 10 uM": 0.689}, {"compound": "Cc1cc(Oc2nnnn2-c2ccccc2)ccc1Cl", "% Inhibition @ 10 uM": -0.834}, {"compound": "N#CC(NC(=O)[C@H](CC1CCCCC1)NC(=O)c1ccccc1)c1cccs1", "note": "(some centres unmarked)", "% Inhibition @ 10 uM": -5.21}, {"compound": "Cc1ccc(C2CC(=O)n3c(nc4ccccc43)N2)cc1", "note": "(centres unmarked)", "% Inhibition @ 10 uM": 0.0289}, {"compound": "CCCOc1ccc(Cn2c(CO)nc3ccccc32)cc1", "% Inhibition @ 10 uM": -0.0626}, {"compound": "O=C(CCN1CCOCC1)c1ccccc1", "% Inhibition @ 10 uM": -2.55}, {"compound": "COc1cc(CNCc2ccc(C)cc2)cc(OC)c1", "% Inhibition @ 10 uM": 2.76}, {"compound": "O=C(NCCCc1ccccc1)c1ccc(CS(=O)Cc2ccc(Cl)cc2)o1", "note": "(centres unmarked)", "% Inhibition @ 10 uM": -5.12}, {"compound": "Oc1ccc(Cl)cc1-c1nc(O)c2c3c(sc2n1)CCCC3", "% Inhibition @ 10 uM": 3.06}, {"compound": "CCn1cc(C2=NOC(C(=O)N3CCC(C(N)=O)CC3)C2)c(C)n1", "note": "(centres unmarked)", "% Inhibition @ 10 uM": -4.85}, {"compound": "Cc1ccc(C2c3c(-c4cc(C)ccc4O)n[nH]c3C(=O)N2Cc2cccnc2)cc1", "note": "(centres unmarked)", "% Inhibition @ 10 uM": -2.92}, {"compound": "COC(=O)c1c(NC(=O)c2ccccc2)sc2c1CCC2", "% Inhibition @ 10 uM": 0.997}, {"compound": "COCCNC(=O)CCN1N=C(c2ccccc2)CCC1=O", "% Inhibition @ 10 uM": 2.35}, {"compound": "CC(=O)C(=CNc1ccc2c(c1)ncn2-c1ccc(C)cc1)C(C)=O", "% Inhibition @ 10 uM": -3.9}, {"compound": "O=C(CNC(=O)c1cccs1)NCCN1CCN(Cc2ccccc2)CC1", "% Inhibition @ 10 uM": 2.05}, {"compound": "Cc1cc(C)c2oc(C(=O)NC3CCS(=O)(=O)C3)cc(=O)c2c1", "note": "(centres unmarked)", "% Inhibition @ 10 uM": 3.51}, {"compound": "COc1cccc(CN2CCN(Cc3c[nH]c4ccccc34)CC2)c1OC", "% Inhibition @ 10 uM": -3.49}, {"compound": "O=C(c1nn2c(C(F)(F)F)cc(-c3cccs3)nc2c1Cl)N1CCOCC1", "% Inhibition @ 10 uM": -6.88}, {"compound": "O=C(Cn1c(=O)c2ccccc2n2nncc12)NCCc1ccccc1", "% Inhibition @ 10 uM": -3.13}, {"compound": "CCOC(=O)c1c(C)[nH]c(C)c1S(=O)(=O)NCc1ccccc1OCC", "% Inhibition @ 10 uM": 4.71}, {"compound": "OC(CN1CC=C(/C=C/c2ccc(Br)cc2)CC1)c1ccccc1", "note": "(centres unmarked)", "% Inhibition @ 10 uM": 2.6}, {"compound": "C=Cc1ccc(Cn2c(C)c(CNCc3ccc(OC(C)C)cc3)c(C(=O)O)c2C)cc1", "% Inhibition @ 10 uM": -3.67}, {"compound": "COc1ccc(C2=C/C(=C/c3cccc(Br)c3)C(=O)O2)c(OC)c1", "% Inhibition @ 10 uM": 3.16}, {"compound": "COc1ccc(OCC(=O)NCCCN2CCOCC2)cc1", "% Inhibition @ 10 uM": 2.1}, {"compound": "CC(=O)c1ccccc1OCCCN1CCCCC1", "% Inhibition @ 10 uM": 4.88}, {"compound": "COc1ccc(C2SCCN2S(=O)(=O)c2ccc(NC(C)=O)cc2)cc1OC", "note": "(centres unmarked)", "% Inhibition @ 10 uM": -2.03}, {"compound": "CN1CCN(Cc2ccc3c(c2)OCO3)CC1", "% Inhibition @ 10 uM": -7.49}, {"compound": "CCOC(=O)N1CCC(NC(=O)c2ccc3c(c2)sc2nc(-c4ccccc4)cn23)CC1", "% Inhibition @ 10 uM": 0.0882}, {"compound": "CS(=O)(=O)N1CCC(C(=O)N2CCc3ccccc3C2)CC1", "% Inhibition @ 10 uM": -3.92}, {"compound": "CCOC(=O)c1nnn(-c2nonc2N)c1COc1cc(C)c(Cl)c(C)c1", "% Inhibition @ 10 uM": -0.0735}, {"compound": "CC(=O)N1CC=C2C(C#N)=C(N)C(C#N)(C#N)C(c3ccccc3C(F)(F)F)C2C1", "note": "(centres unmarked)", "% Inhibition @ 10 uM": -1.93}, {"compound": "CCCCCC(=O)Nc1ncc2c(n1)CC(c1ccc(C)cc1)CC2=O", "note": "(centres unmarked)", "% Inhibition @ 10 uM": 4}, {"compound": "CCC(Sc1nc2nnc(C)c-2c(N)n1-c1ccc(OC)cc1)C(=O)NC1CCCCC1", "note": "(centres unmarked)", "% Inhibition @ 10 uM": 2.9}, {"compound": "Cc1cccc(OCCCN2CCCCC2)c1", "% Inhibition @ 10 uM": 1.08}, {"compound": "CC1=C(C(=O)Nc2ccc(Br)cc2)C(c2ccccc2)NC(=O)N1C", "note": "(centres unmarked)", "% Inhibition @ 10 uM": 3.18}, {"compound": "O=C1N2CN(Cc3ccccc3)CN3C(=O)N4CN(Cc5ccccc5)CN1C4C23", "note": "(centres unmarked)", "% Inhibition @ 10 uM": -0.703}, {"compound": "COc1ccc(CN2CCN(S(=O)(=O)c3ccc(-c4ccc(O)nn4)o3)CC2)c(OC)c1OC", "% Inhibition @ 10 uM": -4.99}]}]}
